Measurements published in PubChem BioAssay AID504339 (National Center for Advancing Translational Sciences (NCATS), 2011).
In all, about 390,000 compounds went through this assay and about 17,000 (4.4%) were called active. This list was built around the results that the source calls inconclusive (neither active nor inactive); the mix of calls is not that of the screen. The call rests on the fitted dose curve; in most records, active means well fitted inhibition curve with a large enough effect; inconclusive means small, poorly fitted or top-dose-only effect; inactive means no such curve, though single readings can be large or run the other way. Potencies beside an inconclusive call are fits to weak or partial responses and may not hold up.

target: Lysine-specific demethylase 4A (Homo sapiens) (UniProt O75164); assay: qHTS Assay for Inhibitors of JMJD2A-Tudor Domain; details: AlphaScreen JMJD2A-Tudor / H3K4me3 peptide binding; activity change, negative = inhibition: at 114 µM (top of the series); further: nearly all actives have a fitted effect of over 50% in size
Chain of UniProt O75164 (O75164 whole entry, looked up, the tested form may be a part): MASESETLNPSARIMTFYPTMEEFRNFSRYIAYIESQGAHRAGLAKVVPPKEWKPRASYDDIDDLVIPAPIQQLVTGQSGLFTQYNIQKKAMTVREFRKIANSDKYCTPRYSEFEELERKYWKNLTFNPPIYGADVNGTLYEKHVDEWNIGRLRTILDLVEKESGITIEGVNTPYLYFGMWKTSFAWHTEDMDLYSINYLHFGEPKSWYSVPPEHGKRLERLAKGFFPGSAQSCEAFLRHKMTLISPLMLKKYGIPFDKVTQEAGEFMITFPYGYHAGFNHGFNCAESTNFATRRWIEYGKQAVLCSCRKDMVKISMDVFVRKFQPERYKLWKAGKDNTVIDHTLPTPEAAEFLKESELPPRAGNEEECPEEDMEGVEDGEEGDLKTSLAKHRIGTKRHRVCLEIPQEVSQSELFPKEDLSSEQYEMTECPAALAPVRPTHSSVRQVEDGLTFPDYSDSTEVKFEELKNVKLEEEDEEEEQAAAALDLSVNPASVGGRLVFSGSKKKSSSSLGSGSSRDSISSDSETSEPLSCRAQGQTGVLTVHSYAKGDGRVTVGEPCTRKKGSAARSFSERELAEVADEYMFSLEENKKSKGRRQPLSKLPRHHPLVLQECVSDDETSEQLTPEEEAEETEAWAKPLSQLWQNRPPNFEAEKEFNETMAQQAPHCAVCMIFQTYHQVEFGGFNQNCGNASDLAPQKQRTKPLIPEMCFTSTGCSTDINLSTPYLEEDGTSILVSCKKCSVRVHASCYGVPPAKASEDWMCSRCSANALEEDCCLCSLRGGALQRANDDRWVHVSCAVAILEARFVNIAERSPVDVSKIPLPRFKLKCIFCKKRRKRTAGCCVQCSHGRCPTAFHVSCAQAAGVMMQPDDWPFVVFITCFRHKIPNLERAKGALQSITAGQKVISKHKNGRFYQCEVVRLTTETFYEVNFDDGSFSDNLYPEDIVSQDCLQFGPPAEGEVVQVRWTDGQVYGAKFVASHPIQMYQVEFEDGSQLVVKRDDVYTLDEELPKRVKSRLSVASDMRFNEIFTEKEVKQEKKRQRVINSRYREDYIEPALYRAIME
On the % scale 0 is the no-effect control and ±100 the full control effect; potency means the concentration at half of the fitted maximal effect; tags describe the fitted curve by direction and shape.

Potency, inconclusive:
O=[N+]([O-])c1cc2c(cc1CN1CCN(CCOCCO)CC1)OCO2 89.1 µM [inhibitor, partial curve], Cc1sc2nc(CN3CCOCC3)nc(N3CCOCC3)c2c1C 1.78 µM [inhibitor, full curve, poor fit], Cc1cc(O)ccc1-c1cnc2ccccc2n1 89.1 µM [inhibitor, partial curve], COC(=O)C(=Nc1ccccc1)/C(C(=O)C(=O)N(C)c1ccccc1)=C(\O)c1ccccc1 20 µM [inhibitor, partial curve], Cc1ccccc1N1CCN(C(=S)c2ccc([N+](=O)[O-])cc2)CC1 22.4 µM [inhibitor, full curve], COc1cc(NC(=O)C2CCCCC2)c(OC)cc1NC(=O)CN1CCCCC1 56.2 µM [inhibitor, partial curve], CCN(CC)c1ccc(NS(=O)(=O)c2cc(-c3cc(C)no3)ccc2C)c(C)c1 17.8 µM [inhibitor, full curve], COc1ccc(N2CCN(C(=O)c3cn(C)c(=O)c4c3c3ccccc3n4C)CC2)cc1 14.1 µM [inhibitor, full curve], CCOC(=O)N1CCN(S(=O)(=O)c2ccc(C(=O)N(CCCN(C)C)c3nc4ccc(Cl)cc4s3)cc2)CC1 44.7 µM [inhibitor, partial curve], NC(=O)CSc1nnc(Cc2csc(Nc3ccc(F)cc3)n2)n1Cc1ccccc1 89.1 µM [inhibitor, single point], CCC1CN2CCc3cc(OC)c(OC)cc3C2CC1CC1c2cc(OC)c(OC)cc2CCN1C(=O)C(Cc1c[nH]c2ccccc12)NC(=O)OC(C)(C)C (stereo not given) 31.6 µM [inhibitor, full curve], Cc1ccc(Nc2cc(C)nn2-c2nc(C)cc(=O)[nH]2)cc1 79.4 µM [inhibitor, single point], Cc1ccc(C2=CSC3=NCCN23)c(C)c1 89.1 µM [inhibitor, single point], Cc1cc(=O)[nH]c(N/N=C/c2cccs2)n1 89.1 µM [inhibitor, partial curve], COc1ccc2nc(Nc3sc4c(c3C(N)=O)CCCC4)sc2c1 31.6 µM [inhibitor, single point], CCn1c(-c2ccccc2SC)n[nH]c1=S 79.4 µM [inhibitor, single point], COc1ccccc1C(=O)NC(=S)Nc1ccc(N2CCN(C(=O)c3ccco3)CC2)cc1 25.1 µM [inhibitor, full curve], Cc1cc(O)c(/C=N/Nc2ccc(Cl)cc2)c(=O)o1 56.2 µM [inhibitor, partial curve], Cc1ccc(Nc2sc(C(=O)c3ccc(F)cc3)c(N)c2S(=O)(=O)c2ccc(C)cc2)cc1 20 µM [inhibitor, full curve, poor fit], Cc1ccc([N+](=O)[O-])cc1N=Nc1c(-c2ccc([N+](=O)[O-])cc2)[nH]n(C(N)=S)c1=O 22.4 µM [inhibitor, full curve], Cc1cc(C)cc(C(=O)NC(=S)Nc2ccc(Cc3ccncc3)cc2)c1 31.6 µM [inhibitor, single point], COc1cc([N+](=O)[O-])ccc1NC(=O)Nc1ccc2c(c1)OCCO2 20 µM [inhibitor, partial curve], C#CCOCCOCCOCCNc1nc(N2CCN(C(=O)C([C@@H](C)O)n3cc([C@@H](N)CCCCN)nn3)CC2)nc(N2CCN(C(=O)[C@H](CC(N)=O)n3cc([C@@H](N)C(C)C)nn3)CC2)n1 (stereo not given in full) 56.2 µM [inhibitor, partial curve], O=C(CSc1nc2ccccc2c(=O)[nH]1)Nc1nc(-c2ccc(Br)cc2)cs1 2.82 µM [inhibitor, full curve, poor fit], Cc1[nH]c2ccccc2c1Cc1nnc(SCc2ccccc2)o1 25.1 µM [inhibitor, full curve], Cc1ccc(Nc2nc(COC(=O)COc3ccc(C=O)cc3)cs2)cc1 39.8 µM [inhibitor, partial curve], O=C(OCc1c(F)cccc1Cl)c1cc([N+](=O)[O-])ccc1N1CCOCC1 0.891 µM [inhibitor, full curve, poor fit], Cc1c(C(=O)Oc2cccc3cccnc23)oc2ccccc12 56.2 µM [inhibitor, partial curve], COc1cc(/C=N/NC(=S)N/N=C/c2cc(OC)c(OC)c(OC)c2)cc(OC)c1OC 31.6 µM [inhibitor, single point], COc1cc(/C=C2/SC(=S)N(c3c(C)n(C)n(-c4ccccc4)c3=O)C2=O)ccc1O 56.2 µM [inhibitor, partial curve], O=C1C2CC=CCC2C(=O)N1CC1CCCO1 (stereo not given) 39.8 µM [inhibitor, single point], CCN(CC)c1cccc(OCC(=O)N2c3ccccc3CC2C)c1 (stereo not given) 39.8 µM [inhibitor, partial curve], Cc1cc(C)cc(N(C(=O)CNC(=O)c2ccco2)C(C(=O)NC2CCCC2)c2ccncc2)c1 (stereo not given) 22.4 µM [inhibitor, single point], S=c1[nH]nc(-c2ccc3ccccc3n2)n1-c1ccccc1Cl 15.8 µM [inhibitor, full curve], Fc1ccc(COc2ccc(Br)cc2CNCc2ccncc2)cc1 35.5 µM [inhibitor, full curve, poor fit], Cc1ccc(S(=O)(=O)N(C(=O)c2ccco2)c2cc3sc(=O)oc3c3ccccc23)cc1 25.1 µM [inhibitor, single point], CCN(CC)S(=O)(=O)c1ccc2oc(Nc3ccccc3)nc2c1 50.1 µM [inhibitor, partial curve, poor fit]

Potency, active:
COc1ccc(CCNCC(=O)Nc2ccc(OC(F)(F)F)cc2)cc1OC 20 µM, Oc1ccc(CCNc2c3ccccc3nc3ccccc23)cc1O 28.2 µM, O=C(O)c1ccc(NC(CSCc2ccccc2F)C(=O)O)c([N+](=O)[O-])c1 (stereo not given) 31.6 µM, Cc1ccc(/C=N/Nc2ccnc3cc(Cl)ccc23)c(C)c1 22.4 µM, O=C(CCl)NC1CCCc2ccccc21 (stereo not given) 50.1 µM, CN1C2CCC1/C(=C/c1cccn1C)C(=O)/C2=C\c1cccn1C 44.7 µM, COc1ccc(C(=O)Nc2nc3n(n2)C(c2ccc(Cl)cc2)C=C(c2ccccc2)N3)cc1OC (stereo not given) 56.2 µM, C=CCn1c(-c2cc(OC)cc(OC)c2)n[nH]c1=S 31.6 µM, C#CCOCCOCCOCCNc1nc(N2CCN(C(=O)[C@H](Cc3ccc(O)cc3)n3cc([C@@H](N)CC(C)C)nn3)CC2)nc(N2CCN(C(=O)[C@H](Cc3cc4ccccc4[nH]3)n3cc([C@@H](N)CC(C)C)nn3)CC2)n1 10 µM, O=C(Nc1cccc(Cl)c1)c1cc(N=Nc2ccc([N+](=O)[O-])cc2Cl)ccc1O 4.47 µM, CN1C(=O)/C(=C\c2cc(N=Nc3ccccc3)ccc2O)SC1=S 39.8 µM

Activity change, negative = inhibition, inactive:
COc1ccc(C2CC(=O)C3=C(C2)Nc2ccccc2N(C(C)=O)C3c2ccco2)cc1 (stereo not given) -21.8%, CCCCOc1cccc(C(=O)N2CCN(CCc3ccncc3)CC2)c1 5.3%, O=C(CN1C(=O)NC2(CCCC2)C1=O)OCc1ccc(Cl)c(Cl)c1 -11.7%, COc1cc2c(cc1OC)CN(C(=O)CCNC(=O)c1ccccc1Cl)CC2 -5.88%, COC(=O)c1c(NC(=O)COc2cccc(C(F)(F)F)c2)sc2c1CCCC2 -4.58%, COc1ccc(Cc2nc3c4cnn(-c5cccc(F)c5)c4ncn3n2)cc1 -8.33%, Cc1ccc(OCCn2cc(/C=N/NC(=O)c3ccncc3)c3ccccc32)cc1 -12.2%, CCOC(=O)N1CCN(C(=O)COC(=O)c2cc(C)ccc2C)CC1 -4.14%, Cc1cccc(NC(=S)NC(NC(=O)c2ccco2)C(Cl)(Cl)Cl)c1 (stereo not given) -2.84%, O=C(CCNC(=O)c1ccco1)Nc1ccc(Cl)c(C(F)(F)F)c1 -13%, CCOc1ccccc1NC(=O)Cn1c(=O)n(Cc2cccs2)c(=O)c2cccnc21 -10.2%, O=C(Nc1ccc2nc(SCC(=O)N3CCCc4ccccc43)sc2c1)c1ccc(Cl)cc1 -9.27%, CCn1nc(C)c(NC(=O)Nc2cccc(Cl)c2Cl)c1C -8.28%, Cc1cc(C)c(OCCCCn2cnc3ccccc3c2=O)c(C)c1 0.641%, O=C(CCn1cnnn1)Nc1ccc(Cl)c(Cl)c1 -1.35%, NCCCC[C@@H](C(=O)N1CCNCC1)n1cc(CN)nn1 -8.39%, CCc1ccc(C(=O)c2cn(CC(=O)Nc3ccc4c(c3)OCO4)c3ccc(F)cc3c2=O)cc1 -14.6%, C=CCn1c(C)nnc1SCC(=O)Nc1oc(C)c2c(C)n[nH]c(=O)c12 -3.45%, CCOCCn1c(C)c(C(=O)OCC)c2cc(O)c3ccccc3c21 -17.9%, C=CCNC(=O)C1CCN(S(C)(=O)=O)CC1 -12.9%

Activity change, negative = inhibition, inconclusive:
Nc1ccc(Oc2ccc3c(c2)OCO3)cc1 -62.3% [inhibitor], CC(=O)C(=Cc1cc(C)n(-c2ccccc2)c1C)C(C)=O -36.6% [inhibitor]
